# Results reported in PubChem BioAssay AID1259400 (National Center for Advancing Translational Sciences (NCATS), 2018).
# About 2,100 (0.6%) of roughly 350,000 compounds were called active. Inconclusive means that the source gave no clear call. Such entries were picked first, then a sample of the others.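 How the source made its calls: active means activity change of -60% or lower, but not beyond a set lower limit; inconclusive means change between -60% and -40%, or beyond the set limit; inactive means change above -40%.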
# Target: Relaxin receptor 1 (Homo sapiens) (UniProt Q9HBX9)
# Assay: qHTS Assay for Antagonists of the Relaxin Receptor RXFP1
# Conditions: HEK293-RXFP1, relaxin-stimulated cAMP HTRF, 30 min; at 57.5 µM; active compounds read low
# On the % scale 0 is the no-effect control and ±100 the full control effect.
# Sequence of UniProt Q9HBX9 (Q9HBX9 whole entry, looked up): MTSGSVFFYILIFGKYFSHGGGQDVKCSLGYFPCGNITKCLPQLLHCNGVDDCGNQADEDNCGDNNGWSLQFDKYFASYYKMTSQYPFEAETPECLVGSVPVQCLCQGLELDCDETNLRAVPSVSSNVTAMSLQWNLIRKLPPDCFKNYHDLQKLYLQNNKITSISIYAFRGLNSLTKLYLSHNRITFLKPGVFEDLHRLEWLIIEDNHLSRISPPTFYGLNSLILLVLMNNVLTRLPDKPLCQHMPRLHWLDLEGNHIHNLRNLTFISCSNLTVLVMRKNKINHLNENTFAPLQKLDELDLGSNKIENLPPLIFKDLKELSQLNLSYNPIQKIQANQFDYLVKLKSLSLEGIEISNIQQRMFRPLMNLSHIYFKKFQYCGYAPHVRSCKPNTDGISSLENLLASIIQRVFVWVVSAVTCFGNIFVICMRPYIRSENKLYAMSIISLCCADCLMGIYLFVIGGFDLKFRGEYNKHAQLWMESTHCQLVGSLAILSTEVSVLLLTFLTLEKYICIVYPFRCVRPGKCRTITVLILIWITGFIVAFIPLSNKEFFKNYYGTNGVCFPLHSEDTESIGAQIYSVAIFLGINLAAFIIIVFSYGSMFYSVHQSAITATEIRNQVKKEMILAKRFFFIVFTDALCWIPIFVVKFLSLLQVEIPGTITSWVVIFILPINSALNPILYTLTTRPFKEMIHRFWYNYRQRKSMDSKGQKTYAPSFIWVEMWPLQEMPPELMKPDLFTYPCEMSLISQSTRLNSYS
row,Compound,"activity change, negative = inhibition"
1,O=C(NCC(c1cccnc1)N1CCc2ccccc2C1)C(=O)Nc1cccc(Cl)c1 (centres undefined),inactive: -25.8%
2,CC(=O)Nc1ccc(-c2ccnc(-c3ccc(NC(C)=O)cc3)n2)cc1,inactive: -0.392%
3,O=c1[nH]ncc(N2CCN(C(c3ccccc3)c3ccccc3)CC2)c1Cl,inconclusive: -41.7%
4,O=C(Nc1nc(=O)c2ccccc2s1)c1ccc(Cl)cc1,inactive: 9.72%
5,COc1ccc(-n2cc(CNCCc3nc(C)cc(C)n3)c(-c3ccccc3Cl)n2)cc1,inconclusive: -45.4%
6,COc1ccc2[nH]c3c(=O)n(CCCCC(=O)N4CCC(C(N)=O)CC4)c(=S)[nH]c3c2c1,active: -94.6%
7,Cc1ccc(NC(=O)C(Cc2ccccc2)n2cccc2)cc1C (centres undefined),inconclusive: -58.6%
8,COc1ccc(-c2csc(N(CCCN(C)C)C(=O)c3ccc(C(C)(C)C)cc3)n2)cc1,active: -65.1%
9,CC(C)(C)c1cc(/C=N/O)cc(C(C)(C)C)c1O,inconclusive: -51.5%
10,C=C(CCC(=O)c1ccccc1)C(=O)c1ccccc1,active: -66.8%
11,Oc1cc2ccccc2cc1-c1n[nH]c(=S)o1,inactive: -18.5%
12,COc1cc(OC)cc(C(=O)NCc2n[nH]c(=S)n2-c2ccccc2)c1,inconclusive: -40.9%
13,Cc1cnccc1CNC(=O)C1CCC(=O)N(Cc2ccc(Cl)cc2)C1 (centres undefined),inconclusive: -42.1%
14,O=C(CCC1N=C2c3ccccc3N=C(SCc3ccc(F)cc3)N2C1=O)NC1CCCCC1 (centres undefined),inconclusive: -49.7%
15,CCC(=NCCc1ccccc1)C1=C(O)CCC1=O,inactive: -8.13%
16,O=C(Nc1ccccn1)c1ccc(Cl)c(S(=O)(=O)N2CCCC2)c1,inconclusive: -51.3%
17,COc1ccc(-c2csc(Nc3ccccn3)n2)cc1,inconclusive: -49.4%
18,CCOC(=O)c1ccc(NC(=O)c2ccc(C)c(S(=O)(=O)N3CCOCC3)c2)cc1,inconclusive: -43.9%
19,Cc1cc(-c2ccc(C)c(S(=O)(=O)N3c4ccccc4CC3C)c2)on1 (centres undefined),inconclusive: -48.7%
20,CC(C)Oc1ccc(Br)cc1/C=N\NC(N)=S,active: -64.7%
21,CCOc1cc(/C=N/Nc2cccc(C(=O)O)c2)ccc1OC(=O)c1ccccc1,active: -75%
22,Cc1ccc(-c2nnc(N3CCN(c4ccccn4)CC3)c3ccccc23)cc1,inconclusive: -51%
23,CC(=O)Nc1ccc(NC(=O)c2cc(-c3cc(C)cc(C)c3O)n[nH]2)cc1,inactive: -4.98%
24,NNC(=O)c1oc2nc(-c3ccco3)cc(-c3ccco3)c2c1N,inconclusive: -40.4%
25,O=C(N/N=C/c1cccs1)c1cccc(S(=O)(=O)Nc2ccc(Cl)cc2)c1,inconclusive: -45.2%
26,CCCOc1cccc(-c2nc3ccccc3c(=O)o2)c1,active: -84.5%
27,COc1ccc(N2CCN(S(=O)(=O)CCNC(=O)c3ccc(OC(C)C)cc3)CC2)cc1,inactive: -6.36%

row,Compound,"activity change, negative = inhibition"
1,Cc1ccc2nc(N(CCCN(C)C)C(=O)CCc3ccccc3)sc2c1,inconclusive: -54.8%
2,CC(NCCCOc1cccc2ccccc12)c1ccccc1 (centres undefined),inconclusive: -54.6%
3,CN[C@H]1CC[C@@H](c2ccc(Cl)c(Cl)c2)c2ccccc21,inconclusive: -50.2%
4,CC(C)Cc1cc(C(=O)N2CCN(C(c3ccccc3)c3ccccc3)CC2)no1,inconclusive: -56.7%
5,CC1(C)c2ccccc2N2CC(=O)N[C@@]21/C=C/C=C/c1ccccc1,inconclusive: -45.9%
6,O=C1S/C(=C\C=C\c2ccco2)C(=O)N1c1ccc(O)cc1,active: -62.9%
7,O=C(NNS(=O)(=O)c1ccccc1)c1cc2cc3ccccc3nc2s1,inactive: 4.97%
8,CC1=C(c2ccc(C)c(C)c2)S(=O)(=O)N=C1N1CCC(C(=O)NCc2ccc(Cl)cc2)CC1,inconclusive: -46.2%
9,Cc1ccccc1CSc1cn(CC(=O)N2CCCC2)c2ccccc12,inconclusive: -50.9%
10,COc1ccc(N(C)S(=O)(=O)c2ccc(C)cc2)c([N+](=O)[O-])c1,inactive: -2%
11,CC(C)(C)c1ccc(C(=O)CC(Sc2ccc(Cl)cc2)C(=O)O)cc1 (centres undefined),active: -95.8%
12,Cc1ccc2[nH]c(C)c(CCNC(=O)NC3CCCCC3)c2c1,inconclusive: -40.8%
13,CCN(CC)c1ccc(S(=O)(=O)Nc2cc(Cl)ccc2Cl)cc1NC(=S)NC(=O)C1CCCC1,inconclusive: -42.1%
14,CCOC(=O)C1(Cc2ccccc2C(F)(F)F)CCN(C2CCN(C(C)=O)CC2)CC1,active: -63.4%
15,CCOC(=O)c1c(NC(=O)c2ccc(S(=O)(=O)N(C)C)cc2)sc2c1CCN(C)C2,inconclusive: -54.7%
16,COc1ccc(CCNC(=O)Cn2nnc(-c3cccc(C(F)(F)F)c3)n2)cc1OC,inactive: -3.17%
17,COc1cccc(C2=NN(C(=O)c3ccc(C)o3)C(O)(C(F)(F)F)C2)c1 (centres undefined),inconclusive: -49.9%
18,S=c1[nH]nc(Cc2cccs2)n1-c1cccc2ccccc12,inconclusive: -49.5%
19,Cc1ccccc1C(=O)NCc1ccc2c(c1)CCN2C(=O)c1ccccc1,inconclusive: -42%
20,COc1cc2[nH]c(=O)n(Cc3ccc(C(=O)NCC4CCCO4)cc3)c(=O)c2cc1OC (centres undefined),inactive: -5.63%
21,NC[C@H]1O[C@H](O[C@H]2[C@H](O[C@@H]3O[C@H](CO)[C@@H](O)[C@H]3O)C(O)[C@H](N)C[C@@H]2N)[C@H](N)[C@@H](O)[C@@H]1O (some centres undefined),inactive: 0%
22,Cc1ccc(-c2csc(NC(=O)C[n+]3cc(-c4ccccc4)n4c3CCC4)n2)cc1,inconclusive: -42.8%
23,O=C(c1ccccc1O)N1N=C(c2ccccc2)CC1(O)C(F)(F)F (centres undefined),active: -76.2%
24,Cc1ccc(-c2noc(CSc3nnc(Cc4ccccc4)n3-c3ccc(Cl)cc3)n2)cc1,inactive: -25.6%
25,COc1cccc(N2CCN(c3ncc4c(n3)CCN(Cc3ccc(Br)cc3)C4)CC2)c1,inactive: -14.8%
26,Cc1ccc(S(=O)(=O)NCC(c2ccco2)N2CCN(c3ccccc3F)CC2)cc1 (centres undefined),inconclusive: -41.3%
27,CCCCN(CC)CCCNC(=O)C1CCN(c2nc3ccc(CC)cc3s2)CC1,inconclusive: -45.6%
